According to the RNAGym collection of RNA variant scans (doi:10.1073/pnas.2313332121):
Variants at the background level are over-represented here.

B1: TPR 5TU (parent)
chain: GGAUCUUCUCGAUCUAACAAAAAAGACAAAUCUGCCACAAAGCUUGAGAGCAUCUUCGGAUGCAGAGGCGGCAGCCUUCGGUGGCGCGAUAGCGCCAACGUUCUCAACUAUGACACGCAAAACGCGUGCUCCGUUGAAUGGAGUUUAUCAUG

Variants of: B1
Assay: polymerase ribozyme fitness, log enrichment relative to wild type (log ratio); higher = more active; in vitro selection for triplet polymerase activity
Procedure, shortened: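 One round of in vitro selection, in triplicate, was applied to PCR-built, transcribed mutant libraries of each subunit of a heterodimeric triplet polymerase ribozyme. The steps were annealing with a biotinylated primer, partner subunit and triplets, incubation frozen at −7 °C, gel excision of extended constructs, streptavidin-bead capture and RT-PCR. Fitness is the logarithm, base 2, of genotype enrichment over wild-type enrichment from inverse-variance-weighted replicate averages of Illumina-sequenced inputs and outputs, keeping genotypes with ≥10 input reads and ≥1 read per output.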

| Variant | polymerase ribozyme fitness (log ratio) |
| --- | --- |
| C57A C96U C108U G140A | ≤ -4.2 |
| C57A G58A U61A G94C C131G U148G | ≤ -4.2 |
| C57A G58U C76A C85U C96U A147G | -3.03 |
| C57A G59C A60G | 0.42 |
| C57A G59C C87G U146G | ≤ -4.2 |
| C57A G59U U77A C99G | ≤ -4.2 |
| C57A G62C C76U A91U C108U G140U U144G C149G | ≤ -4.2 |
| C57A G65A | -0.56 |
| C57A G65A U82G | -0.673 |
| C57A G68C C85A U134A U146C | ≤ -4.2 |
| C57A G68U C69A G81C U134C | ≤ -4.2 |
| C57A G68U G86A C149A | ≤ -4.2 |
| C57A G70U C96U | -2.27 |
| C57A G71U G92C C103U A120G G141C | ≤ -4.2 |
| C57A G74U G94A C99A A110C C118A | ≤ -4.2 |
| C57A G80A C93U A107G G126U | ≤ -4.2 |
| C57A G83A A89G C95U C105A U134G A150U | ≤ -4.2 |
| C57A G86A A110U C149A | ≤ -4.2 |
| C57A G86A G128A | ≤ -4.2 |
| C57A G88A C105G A119G A120G | ≤ -4.2 |
| C57A G94A | -0.487 |
| C57A G124U | -0.787 |
| C57A G133U | -3.13 |
| C57A U61A C95U A97U A115U U144C | ≤ -4.2 |

| Variant | polymerase ribozyme fitness (log ratio) |
| --- | --- |
| C57A U82A A121U G133C | -0.916 |
| C57G A60C | -2.4 |
| C57G A64C C85G | ≤ -4.2 |
| C57G A66G G68U G88C A113C | ≤ -4.2 |
| C57G A73G C87G A98U C125G G141A | ≤ -4.2 |
| C57G A73G C116U | -0.324 |
| C57G A73U G83C G133U G143C U145C | ≤ -4.2 |
| C57G A73U G86C U111G G140C | ≤ -4.2 |
| C57G A107U G133C G136U U144A | ≤ -4.2 |
| C57G A115U U145A | -1.54 |
| C57G A121U U135C | -2.26 |
| C57G A150G | -1.23 |
| C57G C63A G70C G86U G140U | ≤ -4.2 |
| C57G C69A | -2.56 |
| C57G C69U C76A G92A U139A | ≤ -4.2 |
| C57G C75U G86A A91C | ≤ -4.2 |
| C57G C76A C95U C129G A137C U144G | ≤ -4.2 |
| C57G C85G | -1.95 |
| C57G C87A | ≤ -4.2 |
| C57G C87G C93A A98G G124A U134G | ≤ -4.2 |
| C57G C93G | -4.06 |
| C57G C93U A115U | -3.44 |
| C57G C96A | -0.472 |
| C57G C96G U104G | -4.16 |

| Variant | polymerase ribozyme fitness (log ratio) |
| --- | --- |
| C57G C96U A121C A138C U144A | ≤ -4.2 |
| C57G C103G | -2.16 |
| C57G C103U A121C A142U C149U | ≤ -4.2 |
| C57G C114U | -1.83 |
| C57G C125A | -0.508 |
| C57G G59A C118U C125A G136C | -3.19 |
| C57G G59A U78G G84A | ≤ -4.2 |
| C57G G65A G80A A89G G94C C99G G143U | ≤ -4.2 |
| C57G G65C G84A U139A G140U | ≤ -4.2 |
| C57G G67A C69U G80A G94A C103A G126C G136U A137G | ≤ -4.2 |
| C57G G67A C85A U139C | ≤ -4.2 |
| C57G G68U | ≤ -4.2 |
| C57G G70A C95U C105U A113C C114G | ≤ -4.2 |
| C57G G71A A122C G133U | ≤ -4.2 |
| C57G G71C C96U G112U C149A | ≤ -4.2 |
| C57G G71U C72G G84U G133U A137U | ≤ -4.2 |
| C57G G74C A119U | ≤ -4.2 |
| C57G G80A G84A | -0.169 |
| C57G G80C A142C | ≤ -4.2 |
| C57G G80C G84A G94U U135G | ≤ -4.2 |
| C57G G81U C85G C96U U134A | -4.03 |
| C57G G83A G124U G141A | -1.22 |
| C57G G86C A89C C116U A122C | ≤ -4.2 |
| C57G G86U | -1.26 |

| Variant | polymerase ribozyme fitness (log ratio) |
| --- | --- |
| C57G G88C U102G G143A | ≤ -4.2 |
| C57G G88U G94A | ≤ -4.2 |
| C57G G94U C149G | ≤ -4.2 |
| C57G G117U G124C | -1.64 |
| C57G G124U U148G | ≤ -4.2 |
| C57G U61A C87U A89U C116U C118G A122G U139A | ≤ -4.2 |
| C57G U61A G70C C95U A107C U134A | ≤ -4.2 |
| C57G U77C G84A U134A | ≤ -4.2 |
| C57G U78A G84A G94C C103U C105A G133U G140U U144C | ≤ -4.2 |
| C57G U78G C85U A113C G141C | ≤ -4.2 |
| C57G U82A A98G | -3.69 |
| C57G U82C C93A C95U C116U | -3.34 |
| C57G U90G C103A A106C A113G | ≤ -4.2 |
| C57G U146A | -0.273 |
| C57U A60C G86A C105G | ≤ -4.2 |
| C57U A64C C96U | ≤ -4.2 |
| C57U A66C | -3.93 |
| C57U A66C G92U C93A | ≤ -4.2 |
| C57U A66G | -3.4 |
| C57U A66G G71U C85U C95U A113C | ≤ -4.2 |
| C57U A73C G86U C99U G143C | ≤ -4.2 |
| C57U A73G G81A C95U C99U G143U U148C | ≤ -4.2 |
| C57U A91G A97G U135A G143A | ≤ -4.2 |
| C57U A91U C99A U101G U130G G133C C149A | ≤ -4.2 |

| Variant | polymerase ribozyme fitness (log ratio) |
| --- | --- |
| C57U A91U U102G G152U | -3.9 |
| C57U C69A G84U A121C | -2.25 |
| C57U C69G G84A C85G | ≤ -4.2 |
| C57U C69U C93U C103G U151A | ≤ -4.2 |
| C57U C72G G80U C87A | ≤ -4.2 |
| C57U C75A C85G A106U G112C U127C C131G G141A | ≤ -4.2 |
| C57U C75A G83U C96G A97U A98U A119G G124U U134A | ≤ -4.2 |
| C57U C75G | -3.63 |
| C57U C75G C93U C99U | ≤ -4.2 |
| C57U C75U G83C C105G | ≤ -4.2 |
| C57U C76A C79U C85U G86U U134C | ≤ -4.2 |
| C57U C76G A142C | ≤ -4.2 |
| C57U C76G C96U | ≤ -4.2 |
| C57U C76G G84U C96U U134A | ≤ -4.2 |
| C57U C76U G83C U109G A110C A138C | ≤ -4.2 |
| C57U C79A | -4.19 |
| C57U C79A C85U C93G C96U | ≤ -4.2 |
| C57U C79G | -3.67 |
| C57U C85A G124U A147C C149G | ≤ -4.2 |
| C57U C85G C99U G128A | ≤ -4.2 |
| C57U C85U U102A C114A | -3.9 |
| C57U C87A A97C C99G C103U | ≤ -4.2 |
| C57U C87G A120U U135G A142C G152U | ≤ -4.2 |
| C57U C93U A115C A142C A147U | ≤ -4.2 |

| Variant | polymerase ribozyme fitness (log ratio) |
| --- | --- |
| C57U C95A A97C C123A | -0.924 |
| C57U C95A G112U U151A | -4.06 |
| C57U C95A U109G | -0.696 |
| C57U C96G C108G U144G | ≤ -4.2 |
| C57U C96U | -0.201 |
| C57U C96U C103U G117U G136A G141U | ≤ -4.2 |
| C57U C99U A121U G133U U139G | ≤ -4.2 |
| C57U C118G U145C | -0.881 |
| C57U C125A | -0.844 |
| C57U C131U | 1.26 |
| C57U G58C G74C U77A | ≤ -4.2 |
| C57U G58U C69U G71A U78G U144A U151A | ≤ -4.2 |
| C57U G59A A60C C75A C93U | ≤ -4.2 |
| C57U G59A C93A G117U | ≤ -4.2 |
| C57U G59A G67C G94C | ≤ -4.2 |
| C57U G59C C79U G81C A142C U146A | ≤ -4.2 |
| C57U G62A G67C G74A G124A | ≤ -4.2 |
| C57U G65C C85A | ≤ -4.2 |
| C57U G67A C79G C85U A110C | ≤ -4.2 |
| C57U G67C C95A A97G U151A | ≤ -4.2 |
| C57U G68U | -3.89 |
| C57U G70U A97U | ≤ -4.2 |
| C57U G71U C79G | ≤ -4.2 |
| C57U G81A A106U A107U A150G | ≤ -4.2 |

| Variant | polymerase ribozyme fitness (log ratio) |
| --- | --- |
| C57U G83U | -1.72 |
| C57U G84U G126C | -0.969 |
| C57U G86U A107U U130G | ≤ -4.2 |
| C57U G88U | ≤ -4.2 |
| C57U G88U U102C C132U | ≤ -4.2 |
| C57U G92A U104C U135C | ≤ -4.2 |
| C57U G92A U134A A138U | ≤ -4.2 |
| C57U G94A | -0.629 |
| C57U G94U C118U G143U | ≤ -4.2 |
| C57U G126U U127G | ≤ -4.2 |
| C57U U61A C76G G92A | ≤ -4.2 |
| C57U U78G U82G G88C U134G | ≤ -4.2 |
| C57U U82A C85G A97C G126U | ≤ -4.2 |
| C57U U101A | 0.41 |
| C57U U101G | -0.262 |
| C57U U111G A137U | ≤ -4.2 |
| C57U U127C | -2.13 |
| G58A A60C G62A C76G C93A U134C | ≤ -4.2 |
| G58A A64G G88U C96A C105U C125U G126C | ≤ -4.2 |
| G58A A64U G74A C79A U90C C96A C149A | ≤ -4.2 |
| G58A A66C G74C C131G G136U | ≤ -4.2 |
| G58A A89G G94A | -1.91 |
| G58A A89U C96A A115G | -1.15 |
